# Source: PubChem BioAssay AID485364 (National Center for Advancing Translational Sciences (NCATS), 2010)
# Values joined by “and” are separate entries in the source; they are usually repeats but may differ in a detail not shown here. Equal entries are not always repeated. Screen size: about 360,000 compounds; about 11,000 (3.1%) were called active. Inconclusive means that the source gave no clear call. Such entries were picked first, then a sample of the others. The call rests on the fitted dose curve; in most records, active means well fitted inhibition curve with a large enough effect; inconclusive means small, poorly fitted or top-dose-only effect; inactive means no such curve, though single readings can be large or run the other way. A potency beside an inconclusive call is a rough fit, not a confirmed value.
# Biological target: Schistosoma mansoni thioredoxin glutathione reductase (TGR) (UniProt Q962Y6)
# Experiment: qHTS Assay for the Inhibitors of Schistosoma Mansoni Peroxiredoxins; further: nearly all actives have a fitted effect of over 60% in size
# Conditions: purified TGR, DTNB reduction, TNB absorbance 405 nm; series mostly up to 114 µM
# Procedure, shortened: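 TGR 20 nM + NADPH 100 uM (dispensed conc.), cpd preinc 15 min RT; start with NADPH (500 uM addition) then DTNB (15 mM addition). Kinetic TNB absorbance, 405 nm filter. Four-parameter Hill fit across titration.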
# Potency means the concentration at half of the fitted maximal effect; tags describe the fitted curve by direction and shape.
row,Structure (SMILES),Potency
1,CCCCn1c(Cl)nc2c1c(=O)n(C)c(=O)n2C,"inconclusive: 44.7 µM [inhibitor, partial curve, poor fit]"
2,Cc1ccc(C(=O)NNC(=O)c2cc3ccccc3cc2O)cc1,inactive
3,O=C1Nc2c(c(=O)[nH]c(=O)n2Cc2ccccc2)C1(NS(=O)(=O)c1ccccc1)C(F)(F)F (stereo not given),inactive
4,Cc1cc(N)n2nc(C)c(-c3ccc(Cl)cc3)c2n1,inactive
5,N#CCCN(C(=S)Nc1ccc(S(=O)(=O)N2CCOCC2)cc1)c1ccccc1F,"inconclusive: 39.8 µM [inhibitor, partial curve]"
6,O=C(Nc1ccc(N2CCN(C(=O)c3cccs3)CC2)c(Cl)c1)c1ccco1,inactive
7,NC(=O)c1c(N)sc2c1CCC2,"inconclusive: 22.4 µM [inhibitor, full curve, poor fit]"
8,CC1=C(C(=O)O)N2C(=O)C(NC(=O)c3nn(C)c(C)c3Cl)C2SC1 (stereo not given),inactive
9,CCOC(=O)CSc1nnc(CNC(=O)c2cccs2)n1-c1cc(C)ccc1C,"inconclusive: 39.8 µM [inhibitor, single point]"
10,CC(=O)c1ccc(NC(=O)Cn2c(-n3nc(C)cc3C)nc(C)cc2=O)cc1,"inconclusive: 44.7 µM [inhibitor, partial curve]"
11,Cc1ccccc1-n1c(Cc2cccs2)n[nH]c1=S,inactive
12,CC(O)C(=O)N/N=C/c1ccccc1C(=O)O (stereo not given),inactive
13,CCOc1ccc(C(C)C)cc1S(=O)(=O)Nc1cccc(-c2ccc(N3CCOCC3)nn2)c1,inactive
14,COCCN=c1scc(-c2cccs2)n1/N=C/c1ccc(O)c(O)c1O,active: 39.8 µM
15,O=C(N=Nc1ccc(NOC(=O)c2ccccc2Br)cc1)c1ccccc1O,"inconclusive: 17.8 µM [inhibitor, partial curve]"
16,CC(C)(C)c1ccc(OCCSc2nc(-c3cccs3)nc3cc(=O)[nH]n23)cc1,"inconclusive: 89.1 µM [inhibitor, single point]"
17,O=C/C(=C\Nc1ccc(Br)cc1)c1nc2ccccc2o1,inactive
18,COC(CNc1ccc([N+](=O)[O-])c(NCC(OC)OC)c1C#N)OC,"inconclusive: 25.1 µM [inhibitor, full curve]"
19,O=C(NC1CCCC1)C(c1ccc(F)cc1)N(Cc1ccc(Cl)cc1)C(=O)CCl (stereo not given),active: 2.82 µM
20,COc1cccc(CC2(CO)CCCN(CC3=Cc4cc(OC)ccc4OC3)C2)c1 (stereo not given),"inconclusive: 15.8 µM [inhibitor, full curve]"
21,CCC(C)NC(=O)C1CCN(C(=O)c2cc3sccc3n2Cc2ccc(Cl)cc2)CC1 (stereo not given),inactive
22,O=C(Nc1ccc(N2CCCCCC2)cc1)c1ccccc1Cl,inactive
23,CC(=O)N1CCN(C(=O)c2ccc(-c3cccc(C(F)(F)F)c3)o2)CC1,active: 31.6 µM
24,O=C(c1cc2ccccc2cc1O)N1CCCC(C(F)(F)F)C1 (stereo not given),active: 28.2 µM
25,NS(=O)(=O)c1ccc(CCNc2ccnc3cc(Cl)ccc23)cc1,inactive

row,Structure (SMILES),Potency
1,COc1ccc(NC(=O)CCNC(=O)c2ccco2)c(OC)c1,"inconclusive: 44.7 µM [inhibitor, partial curve]"
2,COc1ccc(-c2cc(C(F)F)n3ncc(C(=O)N4CCc5ccccc5C4)c3n2)cc1,"inconclusive: 39.8 µM [inhibitor, partial curve]"
3,Cc1onc(-c2c(Cl)cccc2Cl)c1C(=O)NC1C(=O)N2C1SC(C)(C)C2C(=O)O (stereo not given),inactive
4,O=C(COC(=O)/C=C/c1cccc([N+](=O)[O-])c1)NCc1ccco1,"inconclusive: 50.1 µM [inhibitor, partial curve]"
5,O=[N+]([O-])c1ccccc1S(=O)(=O)N1CCN(Cc2cc3c(cc2O)OCO3)CC1,active: 0.562 µM
6,CCN(CC(=O)Nc1ccc(C(C)=O)cc1)CC(=O)Nc1ccccc1C(F)(F)F,active: 31.6 µM
7,COC(=O)c1ccc(C(=O)Nc2ccc(N)cc2N)cc1,"inconclusive: 39.8 µM [inhibitor, single point]"
8,COCC(C)n1c(SCC(=O)NC(=O)Cc2ccccc2)nc2ccccc2c1=O (stereo not given),inactive
9,CCn1c(O)c(C=NCCN2CCOCC2)c(=O)n(CC)c1=S,"inconclusive: 50.1 µM [inhibitor, partial curve]"
10,C=CCc1ccc(O)c(-c2cc(CC=C)ccc2O)c1,active: 56.2 µM
11,CCc1nnc(NS(=O)(=O)c2ccc(NC(=S)NC(=O)/C=C/c3cccs3)cc2)s1,"inconclusive: 20 µM [inhibitor, partial curve]"
12,COc1ccc(CNC(=S)Nc2ccc(F)c(Cl)c2)cc1,"inconclusive: 3.16 µM [inhibitor, full curve, poor fit]"
13,O=C(NCC1CC1)c1ccc(Oc2cc(Cl)cc(Cl)c2)o1,"inconclusive: 44.7 µM [inhibitor, partial curve]"
14,O=C(NCC(=O)N(Cc1ccccc1)C(C(=O)NC1CCCCC1)c1ccco1)c1ccco1 (stereo not given),"inconclusive: 20 µM [inhibitor, full curve]"
15,N#CC1=C(N)SC(N)=C(C#N)C1CCc1ccccc1,"inconclusive: 20 µM [inhibitor, partial curve, poor fit]"
16,Cc1ccccc1-c1nc(CS(=O)(=O)CC(=O)NCCN2CCOCC2)c(C)o1,"inconclusive: 44.7 µM [inhibitor, partial curve]"
17,O=C(NCc1ccc(F)cc1Cl)C1CC(=O)N(C2CCCCCCC2)C1 (stereo not given),inactive
18,O=S1(=O)N=C(Nc2cccc(C(F)(F)F)c2)c2ccccc21,inactive
19,CCCc1c(C)[nH]c2nc3ccccc3n2c1=O,"inconclusive: 56.2 µM [inhibitor, single point]"
20,O=C(c1cc(COc2cccc3cnccc23)on1)N1CCC(c2ccccc2Cl)C1 (stereo not given),inactive
21,COc1ccccc1NC(=O)C1C2C=CC(O2)C1C(=O)O (stereo not given),active: 39.8 µM
22,O=C1N=C2SCCN2/C1=C\c1c(Cl)cccc1Cl,"inconclusive: 89.1 µM [inhibitor, single point]"
23,COc1cnc(-c2ccccn2)nc1Oc1ccc(Cl)cc1,"inconclusive: 31.6 µM [inhibitor, partial curve]"
24,COc1ccc(NC(=O)CSc2nnc(Cc3cccn3C)n2-c2ccc(F)cc2)cc1OC,active: 44.7 µM
25,O=C(O)Cn1nc(-c2ccc(Cl)cc2)ccc1=O,inactive

row,Structure (SMILES),Potency
1,CCc1ccccc1NC(=O)C(CCSC)NS(=O)(=O)c1ccc2c(c1)oc(=O)n2C (stereo not given),inactive
2,Cc1ccc(N/N=C/c2c(O)n(-c3ccccc3)c(=O)[nH]c2=O)cc1,active: 17.8 µM
3,COc1cccc(CNC(=O)c2ccc(CS(=O)c3ccccc3)o2)c1 (stereo not given),"inconclusive: 39.8 µM [inhibitor, partial curve] and inconclusive: 39.8 µM [inhibitor, full curve, poor fit]"
4,CC(=O)[C@@H]1[C@@H]2C(=O)N(Cc3ccccc3)C(=O)[C@@H]2C2c3ccccc3C=CN21 (stereo not given in full),active: 44.7 µM
5,O=C(NCCCO)/C(=C/c1ccco1)NC(=O)c1ccc(Br)o1,"inconclusive: 44.7 µM [inhibitor, partial curve]"
6,C/C(=N/NS(=O)(=O)c1ccccc1)c1c[nH]c2ccccc12,"inconclusive: 44.7 µM [inhibitor, partial curve]"
7,CCOC(=O)C1=C(COC(=O)c2ccccc2OC(F)F)NC(=O)NC1C (stereo not given),"inconclusive: 7.08 µM [inhibitor, full curve, poor fit]"
8,CC(C)c1onc(C(=O)Nc2cccnc2Cl)c1[N+](=O)[O-],active: 44.7 µM
9,CCCCCCCCS(=O)c1sc2nc(C)cc(C)c2c1N (stereo not given),"inconclusive: 44.7 µM [inhibitor, partial curve]"
10,O=C(CS(=O)(=O)c1ccccc1)c1ccc2c(c1)OCCO2,"inconclusive: 22.4 µM [inhibitor, full curve]"
11,Cc1cc(/C=C2\C(=O)NC(=O)N(Cc3ccco3)C2=O)c(C)n1-c1ccc(C(=O)O)cc1,"inconclusive: 17.8 µM [inhibitor, partial curve]"
12,Cc1ccc(S(=O)(=O)N2CCCc3cc(NC(=O)c4ccc(C(C)(C)C)cc4)ccc32)cc1,inactive
13,CCC1Oc2ccccc2N(CC(=O)NCCCN2CCCCC2CC)C1=O (stereo not given),"inconclusive: 44.7 µM [inhibitor, full curve]"
14,[O-]/[N+](=C\c1ccncc1)c1ccc(Br)cc1,"inconclusive: 39.8 µM [inhibitor, partial curve]"
15,O=C(CCc1ccccc1)NC(=S)Nc1ccccc1Br,"inconclusive: 39.8 µM [inhibitor, partial curve]"
16,Cc1ccc2[nH]c(=O)c(C(c3nnnn3C(C)(C)C)N3CCN(C(=O)c4ccco4)CC3)cc2c1 (stereo not given),"inconclusive: 56.2 µM [inhibitor, partial curve]"
17,Oc1c(Cl)cc(Cl)cc1/C=N/c1nccs1,active: 6.31 µM
18,COc1ccc(C(=O)CCN2CCCC(C)C2)cc1 (stereo not given),active: 0.282 µM
19,CC1CCCCC1Nc1nc2ccc(Cl)cc2n2cnnc12 (stereo not given),inactive
20,O=C(COC(=O)/C=C/c1cccs1)Nc1nc(-c2ccccc2)cs1,active: 22.4 µM
21,CCOC(=O)N1CCC(NC(=O)Cn2ncc3c4ccccc4n(C)c3c2=O)CC1,inactive
22,CCn1c(C(=O)Nc2c(C)cccc2C)cc2sc(Cl)cc21,inactive
23,COC(=O)C1=C(c2ccc(C(C)=O)cc2)C[C@@H]2CC[C@H]1N2C(=O)NC(C)C,active: 35.5 µM
24,CCN(CC)S(=O)(=O)c1ccc(/C=C/C(=O)OCC(=O)Nc2ccc(C(N)=O)cc2)cc1,"inconclusive: 25.1 µM [inhibitor, single point]"
25,CCOC(=O)CSC(=S)NC(=O)c1ccc(OC)cc1,active: 8.91 µM
